Screen size: about 360,000 compounds; about 7,500 (2.1%) were called active. Inconclusive results (about 20%) are left out. Calls come from the whole dose curve; as a rule, active = well fitted inhibition curve with a large enough effect; inconclusive = small, poorly fitted or top-dose-only effect, or effect the other way; inactive = flat fitted curve, though single readings scatter. Only a part is listed here, and it is no random draw.

This note sets out measurements from PubChem BioAssay AID504444 (National Center for Advancing Translational Sciences (NCATS), 2011).
% is set by controls: 0 for no effect and ±100 for the full control effect; potency is the fitted concentration of half-maximal effect.

A short description of this experiment: Nrf2 qHTS screen for inhibitors. Note: nearly all actives have a fitted effect of over 60% in size. To be noted: A549 ARE-Fluc reporter, luciferase luminescence, 18-24 h; series mostly up to 46 µM; activity change, negative = inhibition: at the top concentration. In outline: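 A549 ARE_Fluc cells, 5000/well, 5% FBS OPTI-MEM; compounds in dose-response, 18-24 h at 37 °C/5% CO2; CellTiter-Fluor viability read (Ex 405/Em 525), then BugLite luciferase luminescence = Nrf2 activity.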
For `CCN1/C(=C2/OC(=S)N(C)C2=O)Sc2ccccc21`, the “activity change, negative = inhibition” value was inactive: 4.53%.

For the compound `COc1ccc(/C=C/c2ccccc2)cc1[C@H]1[C@H]2C=CC[C@@H](C)[C@@H]2C(=O)N1Cc1ccccc1`, the “activity change, negative = inhibition” value was inactive: 10.9%.

As to `CCCCN(CCCC)S(=O)(=O)c1ccc(NC(=O)c2cccs2)cc1`, the Potency was active: 18.4 µM.

For the compound `Cc1ccccc1S(=O)(=O)Cc1ccc(C(=O)NC2CCCCC2)o1`, the “activity change, negative = inhibition” value is inactive: 8.92%.

Turning to `CCOC(=O)[C@@H]1[C@H]2COc3cc(OC)ccc3[C@@H]2N2C(=O)N(c3ccc(F)cc3)C(=O)[C@]12C`, the “activity change, negative = inhibition” value is inactive: -10.1%.

In the case of `COc1ccc(NC(=O)CCS(=O)(=O)c2cccc3nonc23)cc1Cl`, the activity change, negative = inhibition is inactive: -6.58% [at 9.27 µM].

Consider `COc1ccc(NS(=O)(=O)c2cc([N+](=O)[O-])ccc2N/N=C\c2c(C)[nH]c3ccccc23)cc1`, for which the “activity change, negative = inhibition” value was inactive: -12.5%.

For `O=C(Nc1cccc(NC(=O)c2ccc(Br)o2)c1)c1ccccc1`, the “activity change, negative = inhibition” value is inactive: -2.86%.

With `CC1=C(CC(=O)O)c2cc(F)ccc2/C1=C\c1ccc(S(C)=O)cc1` (stereo unspecified), the “activity change, negative = inhibition” value was inactive: 3.06%.

For `Cc1ccc(NS(=O)(=O)c2ccc3c(c2)NC(=O)CCS3)cc1C`, the “activity change, negative = inhibition” value was inactive: 0.866%.

With `C[C@@H]1CCC[C@@]2(O[C@@H](CCO)C[C@@H](O)[C@@H]2O)O1`, the “activity change, negative = inhibition” value is inactive: -19.8%.

For `Cc1cccc(NC(=O)C2CCN(S(=O)(=O)c3ccc4ccccc4c3)CC2)n1`, the Potency is active: 16.4 µM.

Turning to `O=C1N[C@H](Cc2ccccc2)COC(=O)[C@H](Cc2ccc(F)cc2)C/C=C\C[C@@H]1CC(=O)N(CCO)Cc1ccccc1`, the “activity change, negative = inhibition” value was inactive: -7.6%.

In the case of `CCOc1ccc(-c2noc(CSc3nnc(Cc4ccccc4)n3-c3cccc(C)c3)n2)cc1`, the Potency is active: 25.9 µM.

On to `CCN1C(=O)[C@H]2[C@@H](c3ccc(SC4CCCCC4)cc3)N3CCCC[C@@]3(C(=O)OC)[C@H]2C1=O`, for which the “activity change, negative = inhibition” value is inactive: -2.82%.

Turning to `C/C=C1\COC(C(=O)NCc2cccc(OC)c2OC)(C(F)(F)F)C=C1C=C1CCCCC1` (stereo unspecified), the “activity change, negative = inhibition” value was inactive: -26.8%.

Turning to `C=CCC[C@H](Cc1ccc(F)cc1)C(=O)OC[C@@H](Cc1c[nH]c2ccccc12)NC(=O)[C@@H](CC=C)CC(=O)N[C@H](CO)Cc1ccccc1`, the “activity change, negative = inhibition” value was inactive: -14.4%.

`C=Cc1c(C)c2cc3[nH]c(cc4nc(cc5nc(cc1[nH]2)C(C)=C5CCC(=O)O)C(CCC(=O)O)=C4C)c(C)c3C=C`: the “activity change, negative = inhibition” value is inactive: 0.964%.

For the compound `CCOc1ccc(S(=O)(=O)N2CCC(C(=O)N3CCCCCC3)CC2)cc1C`, the Potency was active: 18.4 µM.

With `O=C(Nc1nnc(S(=O)(=O)Nc2ccccc2)s1)c1ccccc1Cl`, the “activity change, negative = inhibition” value is inactive: -7.35%.

`COc1ccc2c(c1OC)C(=O)OC2C1c2c(cc3c(c2OC)OCO3)CCN1C` (stereo unspecified): the Potency result is “inactive”.

Regarding `O=S(=O)(c1ccc2c(c1)OCCO2)N1CCCN(S(=O)(=O)c2c(F)cccc2F)CC1`, the “activity change, negative = inhibition” value was inactive: -11.9%.

As for `O=C(COc1ccccc1)Nc1nnc(S(=O)(=O)N2CCCC2)s1`, the “activity change, negative = inhibition” value is inactive: -2.43%.

For the compound `COC(=O)c1cc2sccc2n1Cc1nc(-c2ccc(Cl)cc2)oc1C`, the “activity change, negative = inhibition” value was inactive: 6.25%.

On to `CCc1ccc2oc(C(=O)Nc3nonc3CC)c(C)c2c1`, for which the “activity change, negative = inhibition” value was inactive: 0.717%.

As for `CSc1ccc2c(c1)C(N1CCN(C)CC1)Cc1ccccc1S2` (stereo unspecified), the “activity change, negative = inhibition” value is inactive: -12.5%.
